The source gives no read counts; variants with many changes may rest on few reads.
B1: LINE1-mini (parent)
chain: GGCAGAGCUCAACACAGCGUGGCAAAGUGGCUGUGGCUAGACUGCC

Variants of: B1
Experiment: self-cleavage, relative activity (ratio to wild type); higher = more cleavage; in vitro, sequencing; the parent is a self-cleaving ribozyme

| Variant | self-cleavage |
| --- | --- |
| G7U C15A A24U G27C U28A | 0.1 |
| C18A G35U C37A | 0 |
| C23U A24C C37A G40U U43G | 0.04 |
| G5C A6C G22U | 0.3 |
| A4C A16C G29U | 0.06 |
| G36C U38G A39U G44A | 0.3 |
| G5C C15A G21U | 0.03 |
| G19A U20A G22C | 1.08 |
| C10U A16G C37G | 0.02 |
| A41G U43A C45G | 0.01 |
| G2C A25G G30C C42A | 0.01 |
| C15U A16C A24U | 0.13 |
| A6G G19C A26U G33C | 0.03 |
| G5A U28C G33C G36A | 0.02 |
| G21U U28A G29A C45A | 0.4 |
| C13G G17C G21A G29C A39G | 0.11 |
| A24G G27U G30C U38C | 0.85 |
| G5U C8G A16C C18A | 0.06 |
| U20C G21C C23G G27U G36A | 0.19 |
| C18G A25C G33A C46G | 0.02 |
| A6C C37U A39C | 0 |

| Variant | self-cleavage |
| --- | --- |
| G40U A41U G44C C46G | 0.03 |
| U9A A14U G19A | 0.26 |
| A6G G33A G36U G40U | 0.08 |
| C3U C10G A11U C18G G29U U38C | 0.01 |
| G7A U28C C45A | 0.04 |
| G1C A4U C15U A25U U28A C31A U32G | 0.01 |
| C15U U38C C45U | 0.7 |
| G5C C15U A16U U34C | 0.06 |
| C18A G19C U38A G40C | 0.01 |
| C10A A11C G36U | 0.02 |
| G1A A26U G33U | 0.06 |
| G1A A11G G17U U28G | 0.06 |
| G7A G19A G30U | 0.11 |
| C13U C15U U34A | 0.15 |
| G1A G19A U28G | 0.36 |
| C3U C10A C13U G22U G44A | 0.04 |
| C23G G36A A41C | 0.14 |
| G21A G27A U28G G29A C37G | 0.31 |
| U9A C13U G35U | 0.09 |
| C23A U43G C45A | 0.04 |
| C15A C23U A25C G33C G35U C37U C42U | 0 |

| Variant | self-cleavage |
| --- | --- |
| G7A A26U G27A | 0.13 |
| U9G A14U C15A C18U G44A | 0.03 |
| A6G C10A G21U C23U | 0.04 |
| G2C C8A G35C | 0.12 |
| U9C G21C G22U G36U C42U | 0.03 |
| C3A G5A A11G C45U | 0.06 |
| A14U C18A G29U C31A C42A | 0.01 |
| G2A A4G G21U | 0.29 |
| U9C G22U U34G A39C | 0.01 |
| A6G A11U G29C G36C C45A | 0.01 |
| U20A G22A C42G | 0.04 |
| A6C U20C G22U G35C | 0.03 |
| C13G C15G G19U U20G C46A | 0.01 |
| G1U A6U C13G G19C A26U G29C C42G | 0.02 |
| U9C C10U A16U C31G G40U | 0 |
| G27A G36U C46A | 0.08 |
| U9G A11C C37U C42A C45U | 0 |
| G2U A4G A26C U28A | 0.04 |
| C8U A16G U20G | 0.02 |
| G5U C10G C13A C37A | 0.01 |
| U9C A26C G35U | 0.05 |

| Variant | self-cleavage |
| --- | --- |
| A6C C18G C31G | 0.04 |
| G1U G7U C18G A24G | 0.04 |
| G5A C31A C45A | 0.04 |
| C18G U28C C42A | 0.12 |
| G5C A39G C42G | 0.03 |
| A26U G35U C42A | 0.05 |
| A4C C8G C15A G21C G30A C45A | 0.07 |
| G1U G7C C13A U20A G27C C46G | 0.02 |
| C3A G7C A24U A25U G33A U34A | 0.07 |
| G22C G36A G44U | 0.1 |
| G35A G36U U43C | 0.25 |
| C3A C18G C31A U38C | 0.04 |
| G5C G22A C37G | 0.02 |
| A16G G19U G21U U28A | 0.72 |
| G7C C15U U34G G44U C45U | 0.1 |
| G5A C10U C18U A25U G33U | 0.08 |
| G5U A6C G35U | 0.1 |
| A11C G33A U43G C45G | 0.01 |
| A4U G7U C15A U28G | 0.01 |
| U9A G30A G44A | 0.07 |
